Laboratory results from PubChem BioAssay AID1346428 (National Center for Advancing Translational Sciences (NCATS), 2018).
Hit rate of the full screen: of about 48,000 compounds, about 1,200 (2.5%) were called active. Roughly 2% stayed inconclusive and do not appear here.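 Rule for the calls: active = activation of at least 60% and not above a set upper limit (about 1 call in 100 departs from these limits); inconclusive = activation of 40% to 60%, or above that upper limit; inactive = activation under 40%.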 This is one part of the list.

molecular target: Probable G-protein coupled receptor 32 (Homo sapiens) (UniProt O75388); experiment: qHTS for Agonists of Human Resolvin D1 Receptor DRV1; details: CHO-K1 GPR32 beta-arrestin PathHunter luminescence, 90 min; at 76.9 µM; active compounds read high; zero percent set by DMSO-only wells; note: 0% is about no effect
UniProt O75388, sequence (O75388 whole entry, looked up): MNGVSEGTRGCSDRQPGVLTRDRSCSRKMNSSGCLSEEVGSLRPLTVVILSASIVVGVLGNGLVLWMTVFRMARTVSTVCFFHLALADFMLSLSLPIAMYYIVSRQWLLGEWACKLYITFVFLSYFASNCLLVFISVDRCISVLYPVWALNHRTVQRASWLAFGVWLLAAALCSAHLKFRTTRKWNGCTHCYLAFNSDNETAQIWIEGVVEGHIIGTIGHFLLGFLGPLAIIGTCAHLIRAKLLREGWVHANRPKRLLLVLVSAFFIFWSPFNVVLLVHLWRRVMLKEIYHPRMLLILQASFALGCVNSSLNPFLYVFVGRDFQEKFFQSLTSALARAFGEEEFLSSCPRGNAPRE
In short: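 Step 1: seed CHO-K1 GPR32 beta-arrestin cells, 2,500/well, overnight at 37 °C. Step 2: add compounds, 90 min at 37 °C. Step 3: detection reagent, 1 h ambient, then luminescence.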

activation, inactive:
Cc1cccc(NC(=O)c2c(NC(=O)c3ccccc3)sc3c2CCCC3)c1 -3.09%
Cn1c(=O)c2c(ncn2CC(=O)O)n(C)c1=O 4.46%
Cc1cc(C)c2c(n1)nn1c(C)c(CCC(=O)NCc3ccccc3Cl)c(C)nc21 -15.1%
CN1CCSc2ccc(C(=O)NCc3ccccc3F)cc21 -9.98%
CCOc1ccc(-c2cc3nc(C4CCN(C(=O)OC(C)(C)C)CC4)c(C(=O)Nc4ccc(C)cc4Cl)cn3n2)cc1 -13.9%
O=S(=O)(c1ccc(Br)cc1)c1nnn2c1nc(Nc1cccc(C(F)(F)F)c1)c1sccc12 -4.94%
COC(=O)c1c(C)sc(-c2c(-c3ccc4c(c3)OCCO4)[nH]c3[nH]c(=O)[nH]c(=O)c23)c1O -32.6%
COc1ccc(Cl)cc1NC(=O)CSc1c2c(nc3ccccc13)CCC2 -28.4%
O=C(Nc1nnc(N2CCCCCC2)s1)Nc1ccccc1C(F)(F)F -18.2%
CCC(Sc1nc2ccccc2c2nc(CCc3c(C)n[nH]c3C)nn12)C(=O)Nc1ccc(OC)cc1 (configuration not stated) -13.7%
COc1cc(C(=O)Nc2nc3c(s2)Cc2c(Br)ccc(OC)c2-3)cc(OC)c1OC -8.64%
CCN(c1ccccc1)S(=O)(=O)c1ccc(NC(=O)c2cc(=O)c3cc(C)ccc3o2)cc1 -0.152%
O=C(c1ccc2c(c1)N(Cc1ccc(F)cc1)C(=O)c1ccccc1S2=O)N1CCOCC1 (configuration not stated) -15%
Cc1nn(-c2ccccc2)c(OC(=O)c2ccc(F)cc2)c1S(=O)(=O)c1ccccc1 -8.67%
Cc1ccc(NC(=O)c2c(C(=O)Nc3ccccc3)sc3nc(C)cc(=O)n23)c(C)c1 8.17%
CCOC(=O)CSc1nc(-c2ccccc2)cc(C(F)(F)F)c1C#N 24.6%
CCn1c(CN2CCCCC2)nc2cc(NC(=O)c3ccccc3[N+](=O)[O-])ccc21 -4.17%
CSc1ncc(C(=O)NCc2ccc(Cl)cc2)c(C(F)(F)F)n1 18.1%
COc1ccc(C2=C(C)C(N3CCC(C(=O)Nc4cc(C)ccc4C)CC3)=NS2(=O)=O)cc1 -5.77%
CCCn1cc(S(=O)(=O)c2ccc(C)cc2)c(=O)c2cc(OC)c(OC)cc21 -6.97%
COc1cccc(NC(=O)C(=O)NCCc2csc(-c3ccc(C)cc3)n2)c1 -25.2%
CCN(C(=O)CCNC(=O)Cn1cnc2ccccc2c1=O)c1cccc(Cl)c1 25.1%
